# Measurements reported in PMC5892938.
# The other results are listed elsewhere or left out. At the low end of the ranking, values are background and their order means little.
# Biological target: GST-SBP-SLBP (stem-loop binding protein) (UniProt Q14493)
# Test: targeted RNA Bind-n-Seq;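 note: DESeq read counts versus GST-SBP nonspecific binding control pulldown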
# Conditions: RBNS binding buffer: 25 mM Tris pH 7.5, 150 mM KCl, 3 mM MgCl2, 0.1% Tween, 0.5 mg/mL BSA, 1 mM DTT; 27 nM protein, 750 pM RNA pool; temperature not stated; high values mean tight binding
row,Sequence,binding signal (log2 fold change)
1,GGUCACGUCUCAAUCAACUCCCUAGAGGGGGGGAAAACCCCUUUACCCUCCUUAUCAACAGCUCGCAGUCAAG,-0.311
2,GGUCACGUCUCAAUCAACUCUUAAGAGGGGGGGAAAACCCCUUUGCCCUCAAUCUCAACAGCUCGCAGUCAAG,-0.0452
3,GGUCACGUCUCAAUCAACUCCCCAGAGGGGGGGAAAACCCCUUUGCCCUCCACAUCAACAGCUCGCAGUCAAG,-0.595
4,GGUCACGUCUCAAUCAACUCUAUCUCCAGGGAAACCCCUGGUUAACUCAACAGCUCGCAGUCAAG,0.0218
5,GGUCACGUCUCAAUCAACUCUAUCCCCAGGGAAACCCCUGGUAAUCUCAACAGCUCGCAGUCAAG,-0.0453
6,GGUCACGUCUCAAUCAACUCCAACGAGGGGGGGAAAACCCCUUUACCCUCUCAAUCAACAGCUCGCAGUCAAG,-0.0591
7,GGUCACGUCUCAAUCAACUCAAUUCCCAGGGAAAUCCCUGGUUAACUCAACAGCUCGCAGUCAAG,0.279
8,GGUCACGUCUCAAUCAACUCAUCGCCCAGGGAAACCCCUGGUAUUCUCAACAGCUCGCAGUCAAG,-0.0661
9,GGUCACGUCUCAAUCAACUCUAAAGAGGGGGGGAAAACCCCUUUGCCCUCACAUUCAACAGCUCGCAGUCAAG,-0.157
10,GGUCACGUCUCAAUCAACUCUUUCCCCAGGGAAAACCCUGGUAAACUCAACAGCUCGCAGUCAAG,-0.0108
11,GGUCACGUCUCAAUCAACUCUAUUUCAGGAGUUUACUCCUGCUAAUUCAACAGCUCGCAGUCAAG,-0.143
12,GGUCACGUCUCAAUCAACUCAUUAGAGGGGGGGAAAACCCCUUUGCCCUCCACAUCAACAGCUCGCAGUCAAG,-0.189
13,GGUCACGUCUCAAUCAACUCUUCUUCCAGGGAAACCCCUGGCUAUCUCAACAGCUCGCAGUCAAG,-0.162
14,GGUCACGUCUCAAUCAACUCUAUCUCAGGAGUUUACUCCUGUAUAUUCAACAGCUCGCAGUCAAG,0.337
15,GGUCACGUCUCAAUCAACUCUUUUCCAGGAGUUUUCUCCUGCAUAUUCAACAGCUCGCAGUCAAG,-0.111
16,GGUCACGUCUCAAUCAACUCAAUCUCCAGGGAAAGCCCUGGCAAACUCAACAGCUCGCAGUCAAG,-0.215
17,GGUCACGUCUCAAUCAACUCUUCCUCCAGGGAAACCCCUGGUUUACUCAACAGCUCGCAGUCAAG,0.0642
18,GGUCACGUCUCAAUCAACUCCCUAGAGGGGGGGAAAACCCCUUUGCCCUCCAAUUCAACAGCUCGCAGUCAAG,-0.619
19,GGUCACGUCUCAAUCAACUCCUCAGAGGGGGGGAAAACCCCUUUACCCUCAUCAUCAACAGCUCGCAGUCAAG,0.0549
20,GGUCACGUCUCAAUCAACUCAUUUCCCAGGGAAAACCCUGGUAUACUCAACAGCUCGCAGUCAAG,-0.0595
21,GGUCACGUCUCAAUCAACUCAAUUCCCAGGGAAAGCCCUGGCAAAUUCAACAGCUCGCAGUCAAG,0.238
22,GGUCACGUCUCAAUCAACUCCCUGGAGGGGGGGAAAACCCCUUUACCCUCAAUUUCAACAGCUCGCAGUCAAG,-0.0866
23,GGUCACGUCUCAAUCAACUCUUACGAGGGGGGGAAAACCCCUUUACCCUCAAAUUCAACAGCUCGCAGUCAAG,0.37
24,GGUCACGUCUCAAUCAACUCUUCUUCAGGAGUUUUCUCCUGCUAUUUCAACAGCUCGCAGUCAAG,-0.0942

row,Sequence,binding signal (log2 fold change)
1,GGUCACGUCUCAAUCAACUCUAACGAGGGGGGGAAAACCCCUUUGCCCUCAAUAUCAACAGCUCGCAGUCAAG,-0.0749
2,GGUCACGUCUCAAUCAACUCUACUCCAGGAGUUUACUCCUGUUUUCUCAACAGCUCGCAGUCAAG,0.0252
3,GGUCACGUCUCAAUCAACUCUUCUUCAGGAGUUUCCUCCUGCAUACUCAACAGCUCGCAGUCAAG,-0.00215
4,GGUCACGUCUCAAUCAACUCAAUUUCCAGGGAAACCCCUGGCUAAUUCAACAGCUCGCAGUCAAG,0.267
5,GGUCACGUCUCAAUCAACUCUAUUUCAGGAGUUUUCUCCUGCUAAUUCAACAGCUCGCAGUCAAG,0.122
6,GGUCACGUCUCAAUCAACUCCAUAGAGGGGGGGAAAACCCCUUUGCCCUCACAUUCAACAGCUCGCAGUCAAG,0.0945
7,GGUCACGUCUCAAUCAACUCAUUUUCAGGAGUUUCCUCCUGUUUAGUCAACAGCUCGCAGUCAAG,0.152
8,GGUCACGUCUCAAUCAACUCAAUUUCCAGGGAAAUCCCUGGUAUUCUCAACAGCUCGCAGUCAAG,0.000395
9,GGUCACGUCUCAAUCAACUCUAAAGAGGGGGGGAAAACCCCUUUACCCUCCACGUCAACAGCUCGCAGUCAAG,-0.4
10,GGUCACGUCUCAAUCAACUCUUCCUCAGGAGUUUUCUCCUGCAAUUUCAACAGCUCGCAGUCAAG,0.0289
11,GGUCACGUCUCAAUCAACUCUUUCCCCAGGGAAAACCCUGGCAUUUUCAACAGCUCGCAGUCAAG,0.0252
12,GGUCACGUCUCAAUCAACUCACAAGAGGGGGGGAAAACCCCUUUACCCUCACUUUCAACAGCUCGCAGUCAAG,0.0526
13,GGUCACGUCUCAAUCAACUCACAAGAGGGGGGGAAAACCCCUUUACCCUCCCAUUCAACAGCUCGCAGUCAAG,0.0207
14,GGUCACGUCUCAAUCAACUCUUUUUCCAGGGAAAACCCUGGUAAUUUCAACAGCUCGCAGUCAAG,-0.111
15,GGUCACGUCUCAAUCAACUCAAUCCCCAGGGAAAACCCUGGUAAACUCAACAGCUCGCAGUCAAG,-0.148
16,GGUCACGUCUCAAUCAACUCAAUCCCAGGAGUUUCCUCCUGCAAUUUCAACAGCUCGCAGUCAAG,0.0931
17,GGUCACGUCUCAAUCAACUCUUCGUCAGGAGUUUCCUCCUGUAAUCUCAACAGCUCGCAGUCAAG,-0.0718
18,GGUCACGUCUCAAUCAACUCAAUCUCCAGGGAAACCCCUGGUAUAUUCAACAGCUCGCAGUCAAG,-0.0637
19,GGUCACGUCUCAAUCAACUCUCAAGAGGGGGGGAAAACCCCUUUACCCUCAAAAUCAACAGCUCGCAGUCAAG,-0.259
20,GGUCACGUCUCAAUCAACUCUUCUCCAGGAGUUUCCUCCUGCAUUCUCAACAGCUCGCAGUCAAG,0.163
21,GGUCACGUCUCAAUCAACUCAAUUCCAGGAGUUUACUCCUGUAUUUUCAACAGCUCGCAGUCAAG,0.123
22,GGUCACGUCUCAAUCAACUCAAUCUCAGGAGUUUACUCCUGUUUACUCAACAGCUCGCAGUCAAG,0.227
23,GGUCACGUCUCAAUCAACUCUUUCCCAGGAGUUUCCUCCUGUAUAUUCAACAGCUCGCAGUCAAG,-0.0755
